The values that follow come from US20250136702A1, “HUMAN LIFR ANTIGEN BINDING PROTEIN, PREPARATION METHOD THEREFOR, AND APPLICATION THEREOF” (NONA BIOSCIENCES (SUZHOU) CO., LTD., priority 2020, published 2025).

In assay [1] the target is T1, mouse LIFR-ECD (Mus musculus, UniProt P42703).
T1 construct: mouse LIFR-ECD proteins
T1 sequence (P42703 44-828 limits assumed): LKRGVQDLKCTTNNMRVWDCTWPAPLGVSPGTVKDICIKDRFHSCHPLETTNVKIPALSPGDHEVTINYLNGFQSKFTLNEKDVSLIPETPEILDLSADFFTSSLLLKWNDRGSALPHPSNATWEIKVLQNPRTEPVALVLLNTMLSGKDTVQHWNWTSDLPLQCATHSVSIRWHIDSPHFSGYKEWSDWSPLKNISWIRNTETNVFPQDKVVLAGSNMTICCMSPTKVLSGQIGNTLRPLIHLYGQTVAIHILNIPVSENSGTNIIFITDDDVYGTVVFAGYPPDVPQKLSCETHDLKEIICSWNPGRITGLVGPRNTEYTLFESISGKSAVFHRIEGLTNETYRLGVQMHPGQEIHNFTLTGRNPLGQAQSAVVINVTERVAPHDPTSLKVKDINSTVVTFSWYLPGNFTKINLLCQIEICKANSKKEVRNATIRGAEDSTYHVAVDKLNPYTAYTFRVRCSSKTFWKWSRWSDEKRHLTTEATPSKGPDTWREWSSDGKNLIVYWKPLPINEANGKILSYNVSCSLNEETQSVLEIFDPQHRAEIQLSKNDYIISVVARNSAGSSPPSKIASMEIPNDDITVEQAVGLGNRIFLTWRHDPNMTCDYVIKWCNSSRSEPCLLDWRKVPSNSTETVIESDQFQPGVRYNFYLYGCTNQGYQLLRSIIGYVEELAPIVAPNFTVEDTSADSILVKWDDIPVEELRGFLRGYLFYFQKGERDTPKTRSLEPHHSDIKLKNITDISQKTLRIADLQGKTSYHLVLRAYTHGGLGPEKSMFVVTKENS
The assay can be described thus: ELISA binding of antibodies to mouse LIFR-ECD at the protein level. How it is done: (§1) The binding ability of the 15 antibodies prepared in examples 1-4 of the present invention to the LIFR-ECD protein was detected based on the ELISA assay method. The binding affinity of different antibodies was determined by comparing their dose response binding curves to LIFR-ECD protein. The specific experimental process is as follows: First, human LIFR-ECD, monkey LIFR-ECD and mouse LIFR-ECD proteins are diluted to a concentration of 1 μg/mL, added to a 96-well plate (100 μL per well) and placed at 4° C. overnight. The 96-well plates were washed three times with PBST solution and then placed at 37° C. for 1 h with the addition of 2% BSA in PBS solution. Antibody seris dilution is prepared and (100 nM, 10-fold-dilution), added to a 96-well plate and incubate at 37° C. for 1 h. After washing three times with PBST solution, add anti-human IgG Fc-HRP secondary antibody (for 5000× dilution) and incubate at 37° C. for 30-60 min. After washing three times with PBST solution, add TMB color development solution for 5-15 minutes, and then add termination solution to ternimate the color development.

Assay [2] relates to monkey LIFR-ECD. The assay can be described thus: ELISA binding of antibodies to monkey LIFR-ECD at the protein level. How it is done:
as §1
On the technique in general: An ELISA detects its analyte on a solid surface through an enzyme-linked reagent.

Assay [3] concerns the target T2, human LIFR-ECD (Homo sapiens, UniProt P42702).
T2 construct: The extracellular region (1-833 a.a.) of recombinant human LIFR protein; His tag; made in house; host or cells: HEK293 (transient transfection, purified from culture supernatant)
T2 sequence (P42702 45-833): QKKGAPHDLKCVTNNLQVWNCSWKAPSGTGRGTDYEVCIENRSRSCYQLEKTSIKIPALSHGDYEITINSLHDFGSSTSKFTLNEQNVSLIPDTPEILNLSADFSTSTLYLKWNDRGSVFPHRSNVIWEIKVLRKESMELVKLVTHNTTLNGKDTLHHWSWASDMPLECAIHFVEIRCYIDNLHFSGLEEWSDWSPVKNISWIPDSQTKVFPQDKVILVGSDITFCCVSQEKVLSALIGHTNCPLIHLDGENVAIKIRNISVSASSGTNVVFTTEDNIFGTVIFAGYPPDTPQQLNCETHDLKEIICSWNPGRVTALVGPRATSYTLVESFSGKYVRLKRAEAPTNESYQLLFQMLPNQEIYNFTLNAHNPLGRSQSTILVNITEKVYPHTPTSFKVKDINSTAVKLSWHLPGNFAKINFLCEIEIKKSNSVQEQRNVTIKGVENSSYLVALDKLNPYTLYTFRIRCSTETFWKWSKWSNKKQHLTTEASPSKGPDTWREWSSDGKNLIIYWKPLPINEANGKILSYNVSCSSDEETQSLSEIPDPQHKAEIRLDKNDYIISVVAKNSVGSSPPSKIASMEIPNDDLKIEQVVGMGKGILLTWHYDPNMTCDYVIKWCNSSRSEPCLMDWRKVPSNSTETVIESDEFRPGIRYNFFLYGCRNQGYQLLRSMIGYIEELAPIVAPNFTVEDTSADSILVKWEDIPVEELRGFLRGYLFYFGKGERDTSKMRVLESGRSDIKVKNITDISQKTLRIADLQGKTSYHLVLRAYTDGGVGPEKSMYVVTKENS
The assay can be described thus: ELISA binding of antibodies to human LIFR-ECD at the protein level. The procedure:
as §1

Assay [4] concerns the target T3, human LIFR/gp130 heterodimer expressed on the surface of 293T cells (Homo sapiens, UniProt P42702).
T3 construct: expressed in transfected cells; host or cells: HEK293T, lentiviral transduction (lenti-LIFR/gp130), puromycin selection, monoclonal line
T3 sequence (P42702 45-1097): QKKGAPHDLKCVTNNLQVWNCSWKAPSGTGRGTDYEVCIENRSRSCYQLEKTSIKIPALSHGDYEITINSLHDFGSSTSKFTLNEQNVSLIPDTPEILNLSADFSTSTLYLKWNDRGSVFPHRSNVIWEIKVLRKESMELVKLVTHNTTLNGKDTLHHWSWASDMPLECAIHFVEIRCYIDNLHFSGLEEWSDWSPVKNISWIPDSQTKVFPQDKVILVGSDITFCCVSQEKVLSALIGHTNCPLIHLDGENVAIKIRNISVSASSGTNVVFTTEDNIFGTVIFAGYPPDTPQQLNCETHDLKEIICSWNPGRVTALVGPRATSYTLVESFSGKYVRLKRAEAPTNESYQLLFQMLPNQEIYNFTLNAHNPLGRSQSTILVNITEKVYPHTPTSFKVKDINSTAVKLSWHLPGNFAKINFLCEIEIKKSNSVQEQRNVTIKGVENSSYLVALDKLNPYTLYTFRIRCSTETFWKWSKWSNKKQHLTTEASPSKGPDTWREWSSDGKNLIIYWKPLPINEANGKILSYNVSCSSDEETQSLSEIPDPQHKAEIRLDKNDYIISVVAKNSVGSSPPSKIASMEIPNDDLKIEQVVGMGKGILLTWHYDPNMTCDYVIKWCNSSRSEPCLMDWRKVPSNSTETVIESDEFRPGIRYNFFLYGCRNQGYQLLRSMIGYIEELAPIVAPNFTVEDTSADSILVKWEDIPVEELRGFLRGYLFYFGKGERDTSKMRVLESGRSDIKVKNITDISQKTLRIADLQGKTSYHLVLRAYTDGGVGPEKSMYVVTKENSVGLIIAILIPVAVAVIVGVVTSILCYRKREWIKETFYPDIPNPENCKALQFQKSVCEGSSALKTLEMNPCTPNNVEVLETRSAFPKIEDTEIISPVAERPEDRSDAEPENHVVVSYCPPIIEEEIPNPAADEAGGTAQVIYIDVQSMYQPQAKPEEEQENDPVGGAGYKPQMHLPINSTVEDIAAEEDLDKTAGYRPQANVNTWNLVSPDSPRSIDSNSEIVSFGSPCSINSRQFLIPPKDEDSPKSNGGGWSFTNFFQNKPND
The assay can be described thus: Flow cytometry blocking of huLIF binding to HEK293T-huLIFR/gp130 cells. The settings on record: compared with the negative control hIgG1. How it is done:
The ability of the 15 antibodies prepared in examples 1-4 of the present invention to block the binding of the huLIF protein to the human LIFR/gp130 heterodimer expressed on the surface of 293T cells was tested based on flow cytometry. The blocking ability was determined by comparing the dose response curves of different antibodies blocking the binding of huLIF protein to HEK293T-huLIFR/gp130 cells.
The specific experimental process is: (1) First determine the EC80 concentration of huLIF protein binding to HEK293T-huLIFR/gp130 cells. Label the huLIF protein to obtain the huLIF-biotin protein; (2) make serise diluton of test antibodies and incubate with HEK293T-huLIFR/gp130 cells and huLIF protein (final concentration is the value of EC80) at 4° C. After washing three times with PBS, incubate with APC-labeled Strepavidin secondary antibody for 30 minutes at 4° C. After washing three times with PBS, resuspend the cells with 100 μL FACS buffer; (3) Use flow cytometry to measure the four-channel median fluorescenceDegree value. Use the logarithm of the antibody concentration to base 10 as the abscissa, and plot the four-channel median fluorescence value on the ordinate to compare the IC50 and the peak value of the curve.

Assay [5] concerns the target T2, human LIFR-ECD. The assay can be described thus: Antibody affinity test by Biolayerinterferometry (BLI). In kind it is binding. The settings on record: antibody immobilized on AHC biosensor, antigen 100, 50, 25 nM. The procedure: The binding kinetics of the five antibodies PR300516, PR301127. PR301152, PR301168, PR301211, obtained according to the method of Examples 1-4 of the present invention, were examined by the Biolayerinterferometry (BLI) method (Fortebio octet RED 96e) for the human LIFR-ECD protein.
Dilute the antibody to be tested to a final concentration of 6 μg/mL, directly immobilize it on the AHC biosensor, perform kinetic measurement, dilute the antigen protein (Human LIF) with 0.02% PBST20 to 3 concentrations of 100 nM. 50 nM, 25 nM, respectively, and the sample was loaded for 70 s, the binding time was 300 s, the dissociation time was 300 s, and 10 mM of glycine-HCl (pH 2.0) was added and regenerated for 15 s. A simple one-to-one Languir binding model (Octet Red 96 data analysis software) was used to calculate the binding rate (kon) and the dissociation rate (kdis), the equilibrium dissociation constant (kD) is calculated as the ratio kdis/kon.

B1: PR301172: fully human anti-LIFR IgG1 antibody; VH SEQ ID NO: 59, VL SEQ ID NO: 69, HC SEQ ID NO: 83, LC SEQ ID NO: 93 (antibody)
heavy: EVQLLESGGGLVQPGGSLRLSCATSGFTFSNYAMTWVRQAPGKGLEWVVISGSGFLTYYADAVKGRFTISRVNSKNSLYLQMNSLRAEDTAVYYCTKGGILTGFDYWGQGTLVTVSS[here human IgG1 constant region without letters]
light: KIVMTQSPATLSVSPGERATLSCRASQNLNSNLAWYQQTPGQAPRLLIYGASTRAPGIPARFSGSGSGTEFTLTISSLQSEDFVVYFCQQYNNWPRTFGQGTKVEIKRTVAAPSVFIFPPSDEQLKSGTASVVCLLNNFYPREAKVQWKVDNALQSGNSQESVTEQDSKDSTYSLSSTLTLSKADYEKHKVYACEVTHQGLSSPVTKSFNRGEC
For the molecule B1, the “cross-binding to mouse LIFR-ECD protein (in words)” value in assay [1] is recorded as “can cross-binding”. Also, the “binding ability to monkey LIFR-ECD protein (in words)” value in assay [2] was “have binding ability”. Further, in assay [3], the “binding ability to human LIFR-ECD protein (in words)” value is reported as “have binding ability”.

B2: PR301164: fully human anti-LIFR IgG1 antibody; VH SEQ ID NO: 47, VL SEQ ID NO: 61, HC SEQ ID NO: 71, LC SEQ ID NO: 85 (antibody)
heavy: QVQLVESGGGVVQPGRSLRLSCAASGFTFSSYGMDWVRQAPGKGLEWVAVIWYDGSNKYYADSVKGRFTISRDNSKNTLYLQMNSLRAEDTAVYYCARELWFGELLSPFDFWGQGTLVTVSS[here human IgG1 constant region without letters]
light: KIVLTQSPGTLSLSPGGRATLSCRASQSISSSYLAWYQQKPGQAPRLLIYAASNRATGIPDRFSGSGSGTDFTLTISRLEPEDFAVYYCQQYGSSPFTFGPGIKVDIKRTVAAPSVFIFPPSDEQLKSGTASVVCLLNNFYPREAKVQWKVDNALQSGNSQESVTEQDSKDSTYSLSSTLTLSKADYEKHKVYACEVTHQGLSSPVTKSFNRGEC
For the molecule B2, the “binding ability to monkey LIFR-ECD protein (in words)” value in assay [2] is reported as “have binding ability”. Moreover, the “block huLIF binding to HEK293T-huLIFR/gp130 (in words)” value in assay [4] was “significantly block”. For the same molecule, the “binding ability to human LIFR-ECD protein (in words)” value in assay [3] is listed as “have binding ability”.

B3: PR301211: fully human anti-LIFR IgG1 antibody; VH SEQ ID NO: 55, VL SEQ ID NO: 67, HC SEQ ID NO: 79, LC SEQ ID NO: 91 (antibody)
heavy: QVQLVESGGGVVQPGRSLRLSCAASGFTFSSYGMHWVRQAPGKGLEWVAVIWFDGSLKYYADSVKGRFAISRDNSKNTLYLQMNSLRAEDTAIFYCARGQLVQDLWGRGTLVTVSS[here human IgG1 constant region without letters]
light: DIQMTQSPSTLSASVGDRVTITCRASQSISSWLAWYQQKPGKAPNLLMYKASNLESGVPSRFSGSGSGTEFTLTITSLQPDDFASYYCQQYKSNPLTFGGGTKVEIKRTVAAPSVFIFPPSDEQLKSGTASVVCLLNNFYPREAKVQWKVDNALQSGNSQESVTEQDSKDSTYSLSSTLTLSKADYEKHKVYACEVTHQGLSSPVTKSFNRGEC
Turning to B3, in assay [2], the “binding ability to monkey LIFR-ECD protein (in words)” value is on record as “have binding ability”. Besides, in assay [4], the “block huLIF binding to HEK293T-huLIFR/gp130 (in words)” value was “significantly block”. Also, in assay [5], the Kd (commonly the free concentration of one partner at which half of the binding sites on the other are occupied at equilibrium, for simple one-to-one binding) came out at 0.421 nM. Also, the “binding ability to human LIFR-ECD protein (in words)” value in assay [3] is “have binding ability”.
